Experimental data reported in ChEMBL document CHEMBL1201862, “PubChem BioAssay data set” (2004).

test system: NCI-H322M; assay: NCI-60 cell line screen, 48 h

Row | Structure (SMILES) | GI50
1 | COC(=O)C(CC(C)C)NC(=O)CNC(=O)C(Cc1ccc(OCc2ccccc2)cc1)NC(=O)C(COCc1ccccc1)NC(=O)OC(C)(C)C (configuration not stated) (Boc-S(Bn)Y(Bn)GL-OMe; configuration not given here) | inactive: > 100 µM
2 | COC(=O)[C@H](Cc1ccc(O)c(Br)c1)NC(=O)[C@H](Cc1ccc(O)cc1)NC(=O)OC(C)(C)C (Boc-Tyr-[Tyr(3-Br)]-OMe) | inactive: 86.5 µM
3 | CC(C)C(NC(=O)CNC(=O)C1CCCN1C(=O)C(NC(=O)OC(C)(C)C)C(C)C)C(=O)NCC(=O)OCc1ccccc1 (configuration not stated) (Boc-VPGVG-OBn; configuration not given here) | inactive: > 100 µM
4 | CC(C)C(NC(=O)OC(C)(C)C)C(=O)N(C)C(Cc1ccccc1)C(=O)N(C)C(C(=O)N(C)C(C(=O)OCc1ccccc1)C(C)C)C(C)C (configuration not stated) (Boc-V[NMeF][NMeV][NMeV]-OBn; configuration not given here) | inactive: > 100 µM
5 | CC(C)C(NC(=O)OC(C)(C)C)C(=O)N(C)C(Cc1ccccc1)C(=O)N(C)C(C(=O)N(C)C(C(=O)O)C(C)C)C(C)C (configuration not stated) (Boc-V[NMeF][NMeV][NMeV]-OH; configuration not given here) | inactive: > 100 µM
6 | CC(C)C(C(=O)N(C)[C@H](C(=O)N1CCC[C@H]1C(=O)N(C)[C@@H](Cc1ccccc1)C(=O)OCc1ccccc1)C(C)C)N(C)C(=O)[C@@H](NC(=O)OC(C)(C)C)C(C)C (some centres not stated) (Boc-V[ξNMeV][NMeV]P[NMeF]-OBn) | inactive: > 31.6 µM
7 | CC(C)C(NC(=O)OC(C)(C)C)C(=O)N(C)C(Cc1ccccc1)C(=O)N(C)C(C(=O)OCc1ccccc1)C(C)C (stereo not drawn) (Boc-Val-[NMeF]-[NMeV]-OBn; configuration not given here) | inactive: > 100 µM
8 | CCCCC(=O)Oc1ccc(CC(NC(=O)OC(C)(C)C)C(=O)NC(C)C(=O)NC(Cc2ccccc2)C(=O)NCC(N)=O)cc1 (configuration not stated) (Boc-Y(Pentanoyl)AFG-NH2; configuration not given here) | inactive: 18.7 µM
9 | CCCCOc1ccc(CC(NC(=O)OC(C)(C)C)C(=O)NC(C)C(=O)NC(Cc2ccccc2)C(=O)NCC(N)=O)cc1 (configuration not stated) (Boc-Y(nBu)AFG-NH2; configuration not given here) | inactive: 75.3 µM
10 | COC(=O)CNC(=O)C(Cc1ccccc1)NC(=O)C(CCSC)NC(=O)C(Cc1ccc(O)cc1)NC(=O)OC(C)(C)C (configuration not stated) (Boc-YMFG-OMe; configuration not given here) | inactive: 82.4 µM
11 | CC(C)C(C(=O)N1CCC[C@@H]1C(=O)OCc1ccccc1)N(C)C(=O)C(C(C)C)N(C)C(=O)[C@H](Cc1ccccc1)N(C)C(=O)[C@H](NC(=O)OC(C)(C)C)C(C)C (some centres not stated) (Boc-[dV][NMeF][ξNMeV][ξNMeV][dP]-OBn) | inactive: > 100 µM
12 | CC(C)[C@@H](C(=O)N(C)[C@H](C(=O)N1CCC[C@H]1C(=O)OCc1ccccc1)C(C)C)N(C)C(=O)C(Cc1ccccc1)N(C)C(=O)[C@H](NC(=O)OC(C)(C)C)C(C)C (some centres not stated) (Boc-[dV][ξNMeF][NMeV][NMeV]P-OBn) | inactive: > 31.6 µM
13 | COC(=O)C1(NC(=O)C(CC(=O)OCc2ccccc2)NC(=O)OC(C)(C)C)CC1 (configuration not stated) (Boc-[ξD](OBn)-[Ac3c]-OMe) | inactive: > 100 µM
14 | COC(=O)C(C)(C)NC(=O)C(C)(C)NC(=O)C(CC(=O)OC(C)(C)C)NC(=O)OC(C)(C)C (configuration not stated) (Boc-[ξD](OtBu)-[Aib]-[Aib]-OMe) | inactive: > 100 µM
15 | COC(=O)C(CO)NC(=O)C(CSC(c1ccccc1)(c1ccccc1)c1ccccc1)NC(=O)OCc1ccccc1 (configuration not stated) (Cbz-Cys(Trt)-Ser-OMe; configuration not given here) | inactive: 19.3 µM
16 | CC1(C)NC(=O)C(NC(=O)C(CC(=O)OCc2ccccc2)NC(=O)OCc2ccccc2)CCCCNC(=O)CCNC1=O (configuration not stated) (Cbz-D(OBn)K[Aib][βAla]; lactam 2-C; configuration not given here) | inactive: > 100 µM
17 | COC(=O)CC(NC(=O)OCc1ccccc1)C(=O)NC(CC(=O)OC)C(=O)NC(CC(=O)OC)C(=O)NC(CC(=O)OC)C(=O)NC(CC(=O)OC)C(=O)NC(CC(=O)OC)C(=O)NN (configuration not stated) (Cbz-D(OMe)D(OMe)D(OMe)D(OMe)D(OMe)D(OMe)-NHNH2; configuration not given here) | inactive: > 100 µM
18 | CCOC(=O)CCC(NC(=O)OCc1ccccc1)C(=O)NC(CCC(=O)OCC)C(=O)NC(Cc1ccc([N+](=O)[O-])cc1)C(=O)NC(CCC(=O)OCC)C(=O)NC(CCC(=O)OCC)C(=O)OCC (configuration not stated) (Cbz-E(OEt)E(OEt)[Phe(4-NO2)]E(OEt)E(OEt)-OEt; configuration not given here) | inactive: > 100 µM
19 | CC(=O)N(C)SCC(NC(=O)C(Cc1ccccc1)NC(=O)OCc1ccccc1)C(=O)NC(Cc1ccccc1)C(=O)NC(Cc1cn(C=O)c2ccccc12)C(=O)NC(CCCCNC(=O)OCc1ccccc1)C(=O)NC(C(=O)NC(CSN(C)C(C)=O)C(=O)NC(C(N)=O)C(C)OCc1ccccc1)C(C)OCc1ccccc1 (configuration not stated) (Cbz-F[X27]FW(For)K(Cbz)T(Bn)[X27]T(Bn)-NH2; configuration not given here) | inactive: > 100 µM

Row | Structure (SMILES) | GI50
20 | CC(=O)N(C)SCC(NC(=O)C(Cc1ccccc1)NC(=O)OCc1ccccc1)C(=O)NC(Cc1ccccc1)C(=O)NC(Cc1c[nH]c2ccccc12)C(=O)NC(CCCCNC(=O)OCc1ccccc1)C(=O)NC(C(=O)NC(CSN(C)C(C)=O)C(=O)NC(C(N)=O)C(C)OCc1ccccc1)C(C)OCc1ccccc1 (configuration not stated) (Cbz-F[X27]FWK(Cbz)T(Bn)[X27]T(Bn)-NH2; configuration not given here) | inactive: > 100 µM
21 | NC(=O)CNC(=O)C1CC(O)CN1C(=O)C1CCCN1C(=O)OCc1ccccc1 (stereo not drawn) (Cbz-Pro-[Hyp]-Gly-NH2; configuration not given here) | inactive: > 100 µM
22 | CCOC(=O)CNC(=O)C(Cc1ccccc1)NC(=O)C(C)(C)NC(=O)OCc1ccccc1 (configuration not stated) (Cbz-[Aib]-[ξF]-Gly-OEt) | inactive: > 100 µM
23 | CC(C)(NC(=O)OCc1ccccc1)C(=O)NC(Cc1ccccc1)C(=O)NN (configuration not stated) (Cbz-[Aib]-[ξF]-NHNH2) | inactive: > 100 µM
24 | COC(=O)C(C)(C)NC(=O)C(Cc1ccccc1)NC(=O)C(C)(C)NC(=O)OCc1ccccc1 (configuration not stated) (Cbz-[Aib]-[ξF]-[Aib]-OMe) | inactive: > 100 µM
25 | CC(=O)N(C)SCC(NC(=O)C(Cc1ccccc1)NC(=O)OCC1c2ccccc2-c2ccccc21)C(=O)NC(Cc1ccccc1)C(=O)NC(Cc1cn(C=O)c2ccccc12)C(=O)NC(CCCCNC(=O)OCC1c2ccccc2-c2ccccc21)C(=O)NC(C(=O)NC(CSN(C)C(C)=O)C(=O)NC(C(N)=O)C(C)O)C(C)O (configuration not stated) (Fmoc-F[X27]FW(For)K(Fmoc)T[X27]T-NH2; configuration not given here) | inactive: > 100 µM
26 | CC(C)(C)OC(=O)NCCCCC(NC(=O)C(Cc1c[nH]c2ccccc12)NC(=O)OCC1c2ccccc2-c2ccccc21)C(=O)N1CCCC1C(=O)NCC(N)=O (configuration not stated) (Fmoc-WK(Boc)PG-NH2; configuration not given here) | inactive: > 100 µM
27 | NC(=O)CNC(=O)C1CCCN1C(=O)C1CCCCNOC(=O)CC[C@@H](NC(=O)OCC2c3ccccc3-c3ccccc32)C(=O)NC(Cc2c[nH]c3ccccc23)C(=O)N1 (some centres not stated) (Fmoc-[dE][ξW][X31][ξP]G-NH2; ester 1-3) | inactive: > 100 µM
28 | CC(OC(C)(C)C)C(NC(=O)C(CCCCNC(=O)OC(C)(C)C)NC(=O)C(Cc1c[nH]c2ccccc12)NC(=O)C(Cc1ccccc1)NC(=O)OCC1c2ccccc2-c2ccccc21)C(=O)NC(Cc1ccccc1)C(=O)N[C@@H]1CCC[C@H]1C(=O)OCc1ccccc1 (some centres not stated) (Fmoc-[ξF][ξW][ξK](Boc)[ξT](tBu)[ξF]-X34) | inactive: > 100 µM
29 | CC(C)CC(NC(=O)C(N)CCC(=O)OCc1ccccc1)C(=O)NC(COCc1ccccc1)C(=O)NC(Cc1ccccc1)C(=O)ON1C(=O)CCC1=O (configuration not stated) (H-E(OBn)LS(Bn)F-OSu; configuration not given here) | inactive: 31.5 µM
30 | CC(C)CC(NC(=O)C(CC(C)C)NC(=O)C(Cc1c[nH]cn1)NC(=O)C(C)NC(=O)C(NC(=O)C(C)NC(=O)C(Cc1c[nH]c2ccccc12)NC(=O)C(CCC(=O)O)NC(=O)C(N)Cc1ccccc1)C(C)C)C(N)=O (configuration not stated) (H-FEWAVAHLL-NH2; configuration not given here) | inactive: > 12.5 µM
31 | CC(OC(C)(C)C)C(NC(=O)C(CCCCNC(=O)OC(C)(C)C)NC(=O)C(Cc1c[nH]c2ccccc12)NC(=O)C(N)Cc1ccccc1)C(=O)NC(Cc1ccccc1)C(=O)NC1(C(=O)O)CCCC1 (configuration not stated) (H-FWK(Boc)T(tBu)F[Ac5c]-OH; configuration not given here) | inactive: > 100 µM
32 | CC(O)C(NC(=O)C(Cc1ccccc1)NC(=O)C(NC(=O)C(CCCCN)NC(=O)C(Cc1c[nH]c2ccccc12)NC(=O)C(Cc1ccc(O)cc1)NC(=O)C(Cc1ccc(Cl)cc1)NC(=O)C(N)Cc1ccccc1)C(C)O)C(N)=O (configuration not stated) (H-F[Phe(4-Cl)]YWKTFT-NH2; configuration not given here) | inactive: 19.3 µM
33 | CC(NC(=O)C(Cc1ccc([N+](=O)[O-])cc1)NC(=O)C(N)CCCCN)C(=O)NC(Cc1ccc([N+](=O)[O-])cc1)C(N)=O (configuration not stated) (H-K[Phe(4-NO2)]A[Phe(4-NO2)]-NH2; configuration not given here) | inactive: 26 µM
34 | NC(=O)C1CCCN1C(=O)C(N)Cc1ccccc1 (stereo not drawn) (H-Phe-Pro-NH2; configuration not given here) | inactive: > 100 µM
35 | CCC(C)C(NC(=O)C(CCCCN)NC(=O)C(NC(=O)C(CCC(N)=O)NC(=O)C(N)CCCNC(=N)N)C(C)CC)C(=O)NC(Cc1c[nH]c2ccccc12)C(=O)NC(Cc1ccccc1)C(=O)NC(CCC(N)=O)C(=O)NC(CC(N)=O)C(=O)NC(CCCNC(=N)N)C(=O)NC(CCCNC(=N)N)C(=O)NC(CCSC)C(=O)NC(CCCCN)C(=O)NC(Cc1c[nH]c2ccccc12)C(=O)NC(CCCCN)C(=O)NC(CCCCN)C(=O)N1CCCC1C(=O)NC(C)C(=O)NC(CCCCN)C(=O)NC(CCCNC(=N)N)C(=O)NC(CCCCN)C(=O)NC(CC(C)C)C(=O)NC(Cc1ccccc1)C(=O)NCC(=O)O (configuration not stated) (H-RQIKIWFQNRRMKWKKPAKRKLFG-OH; configuration not given here) | inactive: > 25 µM
36 | COC(=O)C(CC(C)C)NC(=O)C(N)Cc1ccc(OCc2ccccc2)cc1 (configuration not stated) (H-Tyr(Bn)-Leu-OMe; configuration not given here) | inactive: > 10 µM
37 | CC(C)CC(NC(=O)C(Cc1ccccc1)NC(=O)C(Cc1c[nH]c2ccccc12)NC(=O)CNC(=O)C(N)Cc1ccc(O)cc1)C(=O)O (configuration not stated) (H-YGWFL-OH; configuration not given here) | inactive: > 100 µM

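Briefly, cells in 96-well plates were exposed to five compound concentrations for 48 h, and endpoints were estimated by linear interpolation. At the GI50, growth is halved.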 Activity calls are given as the source filed them. No stated cut-off is given here; in the data, active = GI50 up to about 1.1 µM and inactive = higher. Numbered stars: 1 amine (or outer) side, 2 acyl side, 3 side chain; on linkers, the order of the positions; unused ones are H or OH. Bridge positions count the residues as written; N and C are the ends. Square brackets hold non-standard residues; d marks the D form. Peptide text beside a SMILES is read from it. * marks the point of attachment. ξ: configuration not given here. Phe(4-NO2) = N[CH](Cc1ccc([N+](=O)[O-])cc1)C(=O)O; Tyr(3-Br) = N[C@@H](Cc1ccc(O)c(Br)c1)C(=O)O; X34 = O=C(OCc1ccccc1)[C@@H]1CCC[C@H]1N*; Phe(4-Cl) = N[CH](Cc1ccc(Cl)cc1)C(=O)O; Trt = c1ccc(C(c2ccccc2)(c2ccccc2)*)cc1; X27 = CC(=O)N(C)SCC(N[*:1])C(=O)[*:2]; X31 = O=C(C(CCCCNO[*:3])N[*:1])[*:2]; Fmoc = O=C(OCC1c2ccccc2-c2ccccc21)*; NMeF = CN[CH](Cc1ccccc1)C(=O)O; ξW = NC(Cc1c[nH]c2ccccc12)C(=O)O; Hyp = O=C(O)[CH]1C[CH](O)CN1; ξNMeF = CNC(Cc1ccccc1)C(=O)O; NMeV = CN[CH](C(=O)O)C(C)C; ξF = NC(Cc1ccccc1)C(=O)O; ξNMeV = CNC(C(=O)O)C(C)C; Ac5c = NC1(C(=O)O)CCCC1; Cbz = O=C(OCc1ccccc1)*; Pentanoyl = CCCCC(=O)*; ξD = NC(CC(=O)O)C(=O)O; Ac3c = NC1(C(=O)O)CC1; Boc = CC(C)(C)OC(=O)*; OSu = O=C1CCC(=O)N1O*; Aib = CC(C)(N)C(=O)O; ξK = NCCCCC(N)C(=O)O; ξT = CC(O)C(N)C(=O)O; OBn = c1ccc(CO*)cc1; ξP = O=C(O)C1CCCN1; Bn = c1ccc(C*)cc1; OtBu = CC(C)(C)O*; βAla = NCCC(=O)O; tBu = CC(C)(C)*; NHNH2 = NN*; nBu = CCCC*; For = O=C*
